In PubChem BioAssay (NCI):
Where “and” joins values, the source holds several entries; their conditions need not be identical. Identical values can stand only once.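 A five-concentration, 48-hour dose response in 96-well plates underlies each endpoint, interpolated linearly between surrounding concentrations. GI50 = concentration required for 50% inhibition of growth. TGI is the concentration that stops growth completely.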

Test system: NCI-H322M lung
Assay: NCI anticancer screen, dose series, 48 h

Row | SMILES | GI50 | TGI
1 | C/C(=N\NC(=S)N1CCN(c2ccccn2)CC1)c1ccccn1 | 0.0707 µM | 14.4 µM
2 | CC(=O)C(=O)NC1/C=C(C)\C=C/C(O)C/C=C(C)\C=C/C(O)CC2OC(=O)C1(C)C(=O)C2C (centres undefined) | – | > 100 µM
3 | O=c1ccc2ccc(CBr)cc2o1 | – | 27.6 µM
4 | CCCCCCC1N=C(N)N=C(N)N1c1cccc(Cl)c1 (centres undefined) | 0.236 µM | 36 µM
5 | Oc1c(C(Nc2ccccn2)c2cccc(Oc3ccccc3)c2)ccc2cccnc12 (centres undefined) | 0.554 µM | 19.2 µM
6 | COc1cc(C2c3cc4c(cc3OC(NNc3ccccc3)C2C)OCO4)cc(OC)c1OC (centres undefined) | – | 35.7 µM
7 | O=C1/C(=C/c2ccc(O)cc2)CCCC1CN1CCCCC1 (centres undefined) | – | 31.2 µM
8 | COc1cc2c(cc1OC)C(C#N)N(C(=O)c1ccccc1)C=C2OC(=O)c1ccccc1 (centres undefined) | – | 61 µM
9 | COc1cc(OC)cc(Oc2cnc3cc(N)cc(N)c3n2)c1 | 22.8 µM | 92.7 µM
10 | Clc1ccc(CCNC2(c3cc4ccccc4s3)CCCCC2)cc1Cl | – | > 100 µM
11 | CC(C)C(Nc1ncnc2nc[nH]c12)C(=O)O (centres undefined) | – | > 100 µM
12 | O=C(C=Nc1ccccc1C(=O)[O-])c1cccs1.O=C(C=Nc1ccccc1C(=O)[O-])c1cccs1.[Ni+2] | – | > 100 µM
13 | COC(=O)c1c(O)ccc2c1c1cc3ccccc3cc1n2Cc1cc(OC)cc(OC)c1 | – | > 100 µM
14 | Cc1ccccc1C1=C(c2cn(C)c3ccccc23)C(=O)NC1=O | > 25 µM | > 25 µM
15 | CN(c1ccccc1)S(=O)(=O)c1ccc([N+](=O)[O-])cc1 | – | > 100 µM
16 | CC(=O)OCC12CN(C#N)C3C4COC(CC41)C1(C(=O)N(C)c4ccccc41)C32 (centres undefined) | – | > 100 µM
17 | O=c1[nH]c2ccccc2c(O)c1Cc1ccccc1 | – | > 100 µM
18 | O=C1c2ccccc2C(=O)N1n1c(Cc2ccc(Cl)cc2)n[nH]c1=O | – | > 100 µM
19 | O=C1C=C(Nc2ccccc2C(=O)CC(=O)C(=O)Nc2ccc(Cl)cc2)c2ccccc2C1=O | – | 28.7 µM
20 | COc1ccc(-n2c(SC(CN3CCOCC3)CN3CCCC3=O)nc3ccccc3c2=O)cc1 (centres undefined) | – | > 100 µM
21 | O=c1c2c3c(sc2nc2n1N=CN(c1ccccc1)C2)CCCC3 | – | > 100 µM
22 | c1coc(-c2nccc3c2[nH]c2ccccc23)c1 | – | > 100 µM
23 | Cc1ccc(/C=C/C(=O)Oc2ccc(/C=C3\CCC/C(=C\c4ccc(OC(=O)/C=C/c5ccc(C)cc5)cc4)C3=O)cc2)cc1 | – | > 100 µM
24 | CC1CCC2C(C)C(=O)OC3OC4(C)CCC1C32OO4 (centres undefined) | – | > 100 µM
25 | Cc1ccc(F)c(NC(=O)Nc2ccc(-c3cccc4[nH]nc(N)c34)cc2)c1 | 3.34 µM and 3.02 µM | 12.7 µM and > 10 µM
26 | Oc1cc(N2CC2)c(O)cc1N1CC1 | 1.7 µM | 5.34 µM
27 | Cc1ccc(S(=O)(=O)N2CCC[C@@H]2C(=O)O[C@@H]2CCC3CC=CC32)cc1 (some centres undefined) | – | > 100 µM

Row | SMILES | GI50 | TGI
28 | Cc1nnc(N)nc1/C=C\c1ccc(Cl)cc1Cl | – | > 100 µM
29 | O=C(Cn1c(C(=O)c2ccc(Cl)cc2)nc(-c2ccc(Cl)cc2)c1-c1ccc(Cl)cc1)c1ccccc1 | > 100 µM | > 100 µM
30 | CCOC(=O)/C=C/C(=O)O/C=C/[N+](=O)[O-] | – | > 100 µM
31 | Cc1cc2cc3cc(C)c(N)cc3nc2cc1N | – | 1.82 µM
32 | c1ccc2c(c1)SC(=C1Sc3ccccc3S1)S2 | – | > 100 µM
33 | CN1CCN(C(=O)CCC(=O)Nc2cc3c(c4ccccc24)-c2ccc4ccccc4c2C3)CC1 | – | 3.35 µM
34 | CC1CCCC(C(=O)CC2CC(=O)NC(=O)C2)C1=O (centres undefined) | – | > 100 µM
35 | COc1ccc(Nc2nc3cc(C(F)(F)F)ccc3nc2-c2ccccc2)cc1OC | – | > 100 µM
36 | Cc1c(C(=O)O)n2c(=S)[nH]nc2c2ccccc12 | – | > 100 µM
37 | COc1cc(C2c3cc4c(cc3OC(NNC(N)=O)C2C)OCO4)cc(OC)c1OC (centres undefined) | – | 61.5 µM
38 | COC(=O)CNC(=O)C(Cc1ccccc1)NC(=O)c1ccc(-c2ccc(Cl)cc2Cl)o1 (centres undefined) | – | 71.4 µM
39 | CNC(=O)N(CCC#N)CCN(C(=O)NC)c1ccccc1 | – | > 100 µM
40 | Cc1cc2nc3c(C#N)c4c(c(Nc5ccc(F)cc5)n3c2cc1C)CCC4 | – | > 100 µM
41 | COc1ccc2c(c1)Oc1cc(O)ccc1[C@H]2c1ccccc1C(=O)NC(C)c1ccccc1 (some centres undefined) | – | 31.8 µM
42 | CCN1CCC(CC(=O)Nc2n[nH]c3nnc(-c4cccc(F)c4F)cc23)CC1 | > 25 µM | > 25 µM
43 | COC1OCC(O)C(NC(=O)N(C)N=O)C1O (centres undefined) | – | > 100 µM
44 | COC(=O)C1CSC(c2csc(CCN)n2)=N1 (centres undefined) | – | > 100 µM
45 | COC(=O)Oc1nn(C(=O)OC)c(=O)c2ccccc12 | – | > 100 µM
46 | COc1cc2c3c(n(CCCN4CCNCC4)c(=O)c2cc1OC)-c1cc2c(cc1C3=O)OCO2 | 5.47 µM | 12.2 µM
47 | O=C(CCBr)N1CCN(C(=O)CCBr)CC1 | – | 289 µM
48 | CC[C@@]1(O)C[C@H](OC2CC(N(C)C)C(O)C(C)O2)c2c(cc3c(c2O)C(=O)c2c(O)ccc(O)c2C3=O)[C@H]1C(=O)OC (some centres undefined) | – | 0.522 µM
49 | COC(=O)C1=COC2OC3C(C(C)O)C(=O)OC34C=CC1C24 (centres undefined) | – | > 100 µM
50 | CN(C)C1CCN(Cc2ccc(NC(=O)c3cncc(C#Cc4cnc(N)c5ncccc45)c3)cc2C(F)(F)F)CC1 | 8.91 µM | 16.2 µM
51 | COc1ccc2c(c1)CC[C@@H]1C2CC[C@]2(C)C(=O)N(CCN(C)C)C(=O)CC12 (some centres undefined) | – | > 100 µM
52 | N#CCCN(CCC#N)c1ccc(/C=C(/NC(=O)c2cc([N+](=O)[O-])ccc2Cl)C(=O)NN)cc1 | – | > 100 µM
53 | O=C(O)CCCCn1ccc(=O)[nH]c1=O | – | > 100 µM
